Data from publication PMC9590400.
No constants are given. Whether binding was seen depends on the method and setting. For some of these results: In cells and extracts the contact can be indirect. Some binding calls cover weakened binding; strength is not graded here. For some of these results: Where a sequence is shown, tags or fusion partners need not be part of it.

Protein sequences, listed by entry. Tags and fused reporters are not part of them. Lines headed by an entry give the natural chain unless they say otherwise; changes in a name come on top.
UniProt Q9P209: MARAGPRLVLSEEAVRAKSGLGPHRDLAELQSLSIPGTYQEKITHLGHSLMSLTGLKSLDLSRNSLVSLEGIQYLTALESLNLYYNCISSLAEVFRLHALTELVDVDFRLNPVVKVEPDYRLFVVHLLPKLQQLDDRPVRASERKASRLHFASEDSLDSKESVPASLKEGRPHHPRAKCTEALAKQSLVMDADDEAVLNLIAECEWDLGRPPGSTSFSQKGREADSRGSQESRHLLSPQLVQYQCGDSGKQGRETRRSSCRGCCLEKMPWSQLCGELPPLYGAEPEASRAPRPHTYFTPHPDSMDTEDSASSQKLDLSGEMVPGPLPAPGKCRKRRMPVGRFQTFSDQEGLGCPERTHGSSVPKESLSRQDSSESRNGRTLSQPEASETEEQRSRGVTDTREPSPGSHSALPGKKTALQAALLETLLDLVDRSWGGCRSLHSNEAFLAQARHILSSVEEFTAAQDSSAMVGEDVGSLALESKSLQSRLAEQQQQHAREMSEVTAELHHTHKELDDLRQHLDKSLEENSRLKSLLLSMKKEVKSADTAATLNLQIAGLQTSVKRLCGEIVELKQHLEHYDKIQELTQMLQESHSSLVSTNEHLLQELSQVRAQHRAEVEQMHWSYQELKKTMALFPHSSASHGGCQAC
UniProt Q14980: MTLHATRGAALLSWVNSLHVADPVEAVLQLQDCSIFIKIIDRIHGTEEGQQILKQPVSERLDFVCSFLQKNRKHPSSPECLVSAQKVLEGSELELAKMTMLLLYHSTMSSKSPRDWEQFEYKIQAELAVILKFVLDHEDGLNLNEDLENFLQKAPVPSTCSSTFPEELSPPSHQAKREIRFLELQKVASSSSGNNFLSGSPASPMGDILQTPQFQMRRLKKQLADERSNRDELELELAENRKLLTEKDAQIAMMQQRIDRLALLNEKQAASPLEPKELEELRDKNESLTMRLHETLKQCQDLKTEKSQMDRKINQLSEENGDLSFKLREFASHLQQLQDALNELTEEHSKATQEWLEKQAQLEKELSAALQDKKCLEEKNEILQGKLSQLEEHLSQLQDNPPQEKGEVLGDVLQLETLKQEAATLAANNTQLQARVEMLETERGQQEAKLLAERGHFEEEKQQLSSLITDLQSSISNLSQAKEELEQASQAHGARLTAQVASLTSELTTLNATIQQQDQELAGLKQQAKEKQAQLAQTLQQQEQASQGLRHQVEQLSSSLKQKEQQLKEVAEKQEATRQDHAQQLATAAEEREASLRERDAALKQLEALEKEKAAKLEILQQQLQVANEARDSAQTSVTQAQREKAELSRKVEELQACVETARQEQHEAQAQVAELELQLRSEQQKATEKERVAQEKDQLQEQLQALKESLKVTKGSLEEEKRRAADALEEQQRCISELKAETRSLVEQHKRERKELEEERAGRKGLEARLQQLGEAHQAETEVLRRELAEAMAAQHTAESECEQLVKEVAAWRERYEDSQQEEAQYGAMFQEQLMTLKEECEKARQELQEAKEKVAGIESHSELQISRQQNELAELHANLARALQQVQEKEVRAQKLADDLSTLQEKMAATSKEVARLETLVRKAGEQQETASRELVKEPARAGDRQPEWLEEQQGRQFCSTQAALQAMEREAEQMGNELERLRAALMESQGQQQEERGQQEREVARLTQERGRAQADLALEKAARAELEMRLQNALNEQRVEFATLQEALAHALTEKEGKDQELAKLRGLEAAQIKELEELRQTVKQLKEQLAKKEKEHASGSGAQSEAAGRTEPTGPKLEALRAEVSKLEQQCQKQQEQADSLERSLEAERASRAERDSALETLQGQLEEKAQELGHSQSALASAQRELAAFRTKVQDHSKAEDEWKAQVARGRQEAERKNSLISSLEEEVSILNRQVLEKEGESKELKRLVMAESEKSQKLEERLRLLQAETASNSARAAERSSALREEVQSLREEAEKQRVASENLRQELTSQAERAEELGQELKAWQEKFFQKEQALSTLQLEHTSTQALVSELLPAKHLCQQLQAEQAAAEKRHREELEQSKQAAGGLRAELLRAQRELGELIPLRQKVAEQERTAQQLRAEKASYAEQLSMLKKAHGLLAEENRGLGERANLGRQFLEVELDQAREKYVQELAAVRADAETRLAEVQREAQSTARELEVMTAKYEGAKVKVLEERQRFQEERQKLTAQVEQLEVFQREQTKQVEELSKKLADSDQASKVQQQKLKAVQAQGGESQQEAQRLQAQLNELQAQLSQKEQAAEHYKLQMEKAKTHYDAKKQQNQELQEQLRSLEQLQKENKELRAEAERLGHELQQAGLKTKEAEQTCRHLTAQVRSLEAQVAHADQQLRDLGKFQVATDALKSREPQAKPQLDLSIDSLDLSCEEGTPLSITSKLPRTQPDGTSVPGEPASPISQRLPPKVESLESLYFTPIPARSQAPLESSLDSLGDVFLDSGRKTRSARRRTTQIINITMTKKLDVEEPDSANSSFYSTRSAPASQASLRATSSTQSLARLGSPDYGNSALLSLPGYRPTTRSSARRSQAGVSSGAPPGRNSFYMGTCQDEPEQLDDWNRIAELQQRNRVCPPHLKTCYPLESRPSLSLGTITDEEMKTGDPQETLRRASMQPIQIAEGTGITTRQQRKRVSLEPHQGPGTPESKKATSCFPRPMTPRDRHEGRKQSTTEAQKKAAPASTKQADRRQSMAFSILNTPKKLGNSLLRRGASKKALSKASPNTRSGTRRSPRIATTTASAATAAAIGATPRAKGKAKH
UniProt Q15154: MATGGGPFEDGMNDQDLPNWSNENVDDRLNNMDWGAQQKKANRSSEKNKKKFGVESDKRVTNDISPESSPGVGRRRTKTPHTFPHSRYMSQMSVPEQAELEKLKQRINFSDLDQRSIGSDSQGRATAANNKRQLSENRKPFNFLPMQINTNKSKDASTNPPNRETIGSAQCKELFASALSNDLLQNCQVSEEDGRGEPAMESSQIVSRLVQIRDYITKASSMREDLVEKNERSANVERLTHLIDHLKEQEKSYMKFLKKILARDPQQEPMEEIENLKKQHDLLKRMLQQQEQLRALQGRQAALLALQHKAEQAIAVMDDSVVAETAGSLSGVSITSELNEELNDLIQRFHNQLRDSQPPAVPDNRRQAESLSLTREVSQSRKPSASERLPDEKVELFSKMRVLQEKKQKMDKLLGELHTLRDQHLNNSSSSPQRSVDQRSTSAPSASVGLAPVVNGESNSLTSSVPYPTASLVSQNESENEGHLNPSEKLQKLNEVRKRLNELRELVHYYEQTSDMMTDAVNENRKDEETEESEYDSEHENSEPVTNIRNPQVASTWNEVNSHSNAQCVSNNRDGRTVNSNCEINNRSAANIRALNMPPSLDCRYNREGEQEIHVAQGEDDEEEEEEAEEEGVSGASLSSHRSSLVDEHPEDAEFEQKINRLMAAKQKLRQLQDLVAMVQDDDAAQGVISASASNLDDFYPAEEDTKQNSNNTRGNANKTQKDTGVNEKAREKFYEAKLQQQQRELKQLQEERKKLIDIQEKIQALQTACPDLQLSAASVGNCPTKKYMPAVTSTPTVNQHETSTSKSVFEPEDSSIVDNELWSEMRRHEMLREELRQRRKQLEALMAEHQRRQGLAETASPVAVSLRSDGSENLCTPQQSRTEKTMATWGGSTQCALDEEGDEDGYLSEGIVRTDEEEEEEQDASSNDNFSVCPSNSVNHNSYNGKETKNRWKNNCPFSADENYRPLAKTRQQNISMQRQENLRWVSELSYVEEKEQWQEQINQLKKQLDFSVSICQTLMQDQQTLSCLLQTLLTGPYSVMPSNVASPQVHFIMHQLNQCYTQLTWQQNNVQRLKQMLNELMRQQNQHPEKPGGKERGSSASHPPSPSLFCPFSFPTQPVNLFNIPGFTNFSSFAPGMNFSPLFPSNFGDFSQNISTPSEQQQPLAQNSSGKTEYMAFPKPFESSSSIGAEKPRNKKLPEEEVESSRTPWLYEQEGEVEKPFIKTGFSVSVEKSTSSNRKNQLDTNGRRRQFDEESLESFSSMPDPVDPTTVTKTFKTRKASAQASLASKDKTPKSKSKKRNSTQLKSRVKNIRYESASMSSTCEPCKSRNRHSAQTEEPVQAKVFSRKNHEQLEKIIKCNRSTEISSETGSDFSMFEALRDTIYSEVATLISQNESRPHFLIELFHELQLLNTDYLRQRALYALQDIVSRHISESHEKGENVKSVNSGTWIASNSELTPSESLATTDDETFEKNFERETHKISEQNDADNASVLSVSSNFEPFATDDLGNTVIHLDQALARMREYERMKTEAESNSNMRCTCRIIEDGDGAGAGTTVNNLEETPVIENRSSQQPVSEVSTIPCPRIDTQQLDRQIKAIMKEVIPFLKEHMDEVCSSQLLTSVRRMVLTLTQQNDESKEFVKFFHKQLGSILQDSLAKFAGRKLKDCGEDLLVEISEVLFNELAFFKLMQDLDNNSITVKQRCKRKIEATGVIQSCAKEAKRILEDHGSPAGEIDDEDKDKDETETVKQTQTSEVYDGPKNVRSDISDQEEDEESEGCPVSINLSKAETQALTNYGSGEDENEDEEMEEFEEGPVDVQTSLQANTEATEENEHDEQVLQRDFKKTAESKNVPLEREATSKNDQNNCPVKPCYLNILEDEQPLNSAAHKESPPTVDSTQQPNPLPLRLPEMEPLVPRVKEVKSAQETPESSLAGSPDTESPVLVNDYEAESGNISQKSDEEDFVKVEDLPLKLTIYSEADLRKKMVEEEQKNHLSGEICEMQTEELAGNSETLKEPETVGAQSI

T1: HCR-mCherry expressed in HeLa cells (human) (UniProt Q8TD31)
T1 sequence: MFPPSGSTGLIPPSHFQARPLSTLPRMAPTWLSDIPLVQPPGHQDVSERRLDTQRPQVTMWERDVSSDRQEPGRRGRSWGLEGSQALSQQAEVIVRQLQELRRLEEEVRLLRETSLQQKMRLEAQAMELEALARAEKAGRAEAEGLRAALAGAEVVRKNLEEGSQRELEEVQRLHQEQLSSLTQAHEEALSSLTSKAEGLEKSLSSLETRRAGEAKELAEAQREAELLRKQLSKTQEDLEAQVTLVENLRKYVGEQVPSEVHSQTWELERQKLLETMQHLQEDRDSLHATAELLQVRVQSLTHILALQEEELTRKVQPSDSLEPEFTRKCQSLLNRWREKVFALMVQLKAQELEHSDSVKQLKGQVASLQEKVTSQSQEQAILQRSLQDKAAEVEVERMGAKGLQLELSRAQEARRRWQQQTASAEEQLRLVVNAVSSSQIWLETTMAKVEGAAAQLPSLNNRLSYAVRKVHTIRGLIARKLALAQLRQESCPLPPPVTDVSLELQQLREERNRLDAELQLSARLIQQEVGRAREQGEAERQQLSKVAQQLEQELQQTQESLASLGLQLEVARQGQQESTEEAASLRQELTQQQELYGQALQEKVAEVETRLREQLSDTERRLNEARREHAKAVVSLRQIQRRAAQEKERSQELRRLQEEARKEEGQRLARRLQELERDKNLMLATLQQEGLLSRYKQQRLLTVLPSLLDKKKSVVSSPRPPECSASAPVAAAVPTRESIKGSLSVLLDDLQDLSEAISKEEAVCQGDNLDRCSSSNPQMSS

T2: Coiled-coil alpha-helical rod protein 1 (HCR), endogenous in HeLa (human (endogenous in HeLa)) (UniProt Q8TD31)
T2 sequence: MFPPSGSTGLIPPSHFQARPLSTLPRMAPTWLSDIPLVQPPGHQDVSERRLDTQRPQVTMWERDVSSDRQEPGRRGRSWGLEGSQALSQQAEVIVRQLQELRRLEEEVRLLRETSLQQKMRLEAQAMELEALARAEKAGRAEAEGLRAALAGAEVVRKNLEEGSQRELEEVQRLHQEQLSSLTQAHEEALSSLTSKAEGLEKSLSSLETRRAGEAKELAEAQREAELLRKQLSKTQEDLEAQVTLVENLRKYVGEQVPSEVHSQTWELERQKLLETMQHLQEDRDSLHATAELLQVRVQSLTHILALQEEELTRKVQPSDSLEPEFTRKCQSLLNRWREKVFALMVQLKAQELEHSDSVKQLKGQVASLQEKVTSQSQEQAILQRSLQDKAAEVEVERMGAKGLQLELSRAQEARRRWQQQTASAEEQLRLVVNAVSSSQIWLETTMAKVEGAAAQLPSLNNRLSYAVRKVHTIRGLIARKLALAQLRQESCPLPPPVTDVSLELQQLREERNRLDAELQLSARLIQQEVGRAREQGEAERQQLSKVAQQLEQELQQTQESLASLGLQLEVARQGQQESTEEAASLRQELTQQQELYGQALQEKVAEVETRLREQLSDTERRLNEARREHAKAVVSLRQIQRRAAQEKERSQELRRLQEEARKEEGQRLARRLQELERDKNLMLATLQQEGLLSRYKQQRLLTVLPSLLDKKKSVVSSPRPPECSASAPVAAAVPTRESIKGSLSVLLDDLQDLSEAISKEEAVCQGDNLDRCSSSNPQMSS

T3: astrin (sperm-associated antigen 5), endogenous in HeLa (human (endogenous in HeLa)) (UniProt Q96R06)
T3 sequence: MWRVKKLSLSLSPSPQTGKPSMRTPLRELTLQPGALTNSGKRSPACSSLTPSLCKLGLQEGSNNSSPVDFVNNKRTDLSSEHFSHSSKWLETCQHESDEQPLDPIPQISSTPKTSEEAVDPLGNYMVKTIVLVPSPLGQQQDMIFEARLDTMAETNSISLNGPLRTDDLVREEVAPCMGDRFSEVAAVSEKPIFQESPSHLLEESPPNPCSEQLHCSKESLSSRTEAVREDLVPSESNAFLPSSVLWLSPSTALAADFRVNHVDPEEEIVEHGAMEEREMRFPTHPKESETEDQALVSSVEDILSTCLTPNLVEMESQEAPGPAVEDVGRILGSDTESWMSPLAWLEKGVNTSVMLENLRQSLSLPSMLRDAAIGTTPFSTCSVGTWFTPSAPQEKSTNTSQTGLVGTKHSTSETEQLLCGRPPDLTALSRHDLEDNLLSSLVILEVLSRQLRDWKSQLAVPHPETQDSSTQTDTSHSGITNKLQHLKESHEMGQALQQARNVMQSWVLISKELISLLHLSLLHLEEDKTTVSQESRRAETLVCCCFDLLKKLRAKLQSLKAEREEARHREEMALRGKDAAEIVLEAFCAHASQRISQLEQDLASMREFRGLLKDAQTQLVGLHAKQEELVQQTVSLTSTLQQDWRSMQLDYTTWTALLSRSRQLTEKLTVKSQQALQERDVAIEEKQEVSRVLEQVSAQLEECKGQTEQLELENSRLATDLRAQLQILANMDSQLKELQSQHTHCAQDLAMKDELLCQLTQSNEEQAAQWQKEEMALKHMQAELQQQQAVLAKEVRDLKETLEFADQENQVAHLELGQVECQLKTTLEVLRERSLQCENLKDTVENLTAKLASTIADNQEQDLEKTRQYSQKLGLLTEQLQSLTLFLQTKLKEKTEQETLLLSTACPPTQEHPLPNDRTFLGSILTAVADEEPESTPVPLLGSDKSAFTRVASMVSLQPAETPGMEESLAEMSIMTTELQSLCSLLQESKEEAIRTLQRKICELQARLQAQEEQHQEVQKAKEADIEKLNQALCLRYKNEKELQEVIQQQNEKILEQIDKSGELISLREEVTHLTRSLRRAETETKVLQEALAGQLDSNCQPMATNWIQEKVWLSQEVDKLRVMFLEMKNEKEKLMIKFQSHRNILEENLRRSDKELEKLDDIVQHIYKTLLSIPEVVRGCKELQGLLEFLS

T4: GFP-tagged HCR coiled-coil 3 fragment (aa 441-782) expressed in HeLa cells (human) (UniProt Q8TD31)
T4 sequence: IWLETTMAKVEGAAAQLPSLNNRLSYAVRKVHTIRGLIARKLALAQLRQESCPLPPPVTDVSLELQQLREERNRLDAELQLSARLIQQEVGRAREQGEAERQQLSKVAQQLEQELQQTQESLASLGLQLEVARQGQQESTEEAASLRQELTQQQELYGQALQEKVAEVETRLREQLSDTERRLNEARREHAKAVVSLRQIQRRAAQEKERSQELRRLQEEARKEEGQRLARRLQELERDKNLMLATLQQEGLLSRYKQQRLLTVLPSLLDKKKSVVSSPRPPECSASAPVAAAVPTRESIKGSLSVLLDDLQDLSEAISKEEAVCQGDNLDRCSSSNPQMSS


Columns and labels:
[1] = biological target: T1, HCR-mCherry expressed in HeLa cells (human); experiment: co-IP; HeLa cells transfected with one tagged HCR construct (GFP-HCR-CC3 or HCR-mCherry); precipitated by the tag's antibody; endogenous partner detected by western blot
[2] = biological target: T2, Coiled-coil alpha-helical rod protein 1 (HCR), endogenous in HeLa (human (endogenous in HeLa)); experiment: co-IP; endogenous proteins in HeLa cell lysates (50 mM Tris, 150 mM NaCl, 0.1% NP40); antibody to one partner or control rabbit IgG, protein A and protein G beads, 4 °C; western blot
[3] = biological target: T3, astrin (sperm-associated antigen 5), endogenous in HeLa (human (endogenous in HeLa)); experiment: as above
[4] = biological target: T4, GFP-tagged HCR coiled-coil 3 fragment (aa 441-782) expressed in HeLa cells (human); experiment: co-IP; HeLa cells transfected with one tagged HCR construct (GFP-HCR-CC3 or HCR-mCherry); precipitated by the tag's antibody; endogenous partner detected by western blot
[5] = biological target: GST-tagged CEP72 purified from E. coli (UniProt Q9P209); experiment: pull-down; GST-tagged protein and His-tagged HCR fragments, both purified from E. coli BL21(DE3); GST pull-down in vitro; both purified

Row | binding [3] | binding [5] | Molecule | binding [1] | binding [2] | binding [4]
1 | binds | – | CEP72, endogenous in HeLa (from UniProt Q9P209-1 1-647) | – | binds | binds
2 | – | binds | His-tagged HCR third coiled-coil region purified from E. coli (domain or fragment, UniProt Q8TD31-1 441-782) IWLETTMAKVEGAAAQLPSLNNRLSYAVRKVHTIRGLIARKLALAQLRQESCPLPPPVTDVSLELQQLREERNRLDAELQLSARLIQQEVGRAREQGEAERQQLSKVAQQLEQELQQTQESLASLGLQLEVARQGQQESTEEAASLRQELTQQQELYGQALQEKVAEVETRLREQLSDTERRLNEARREHAKAVVSLRQIQRRAAQEKERSQELRRLQEEARKEEGQRLARRLQELERDKNLMLATLQQEGLLSRYKQQRLLTVLPSLLDKKKSVVSSPRPPECSASAPVAAAVPTRESIKGSLSVLLDDLQDLSEAISKEEAVCQGDNLDRCSSSNPQMSS | – | – | –

The next lines start with the molecule.

Row | Molecule | binding [3] | binding [5] | binding [1] | binding [2] | binding [4]
3 | NuMA, endogenous in HeLa (from UniProt Q14980 1-2115) | – | – | binds | – | –
4 | pericentriolar material 1 (PCM1), endogenous in HeLa (from UniProt Q15154 1-2024) | binds | – | – | binds | –
